Some of the results follow. At the low end of the ranking the order means little. The protein was read in a cell extract, so binding may be indirect.

The experiment addresses T1, HNF4alpha8 (COS-7 nuclear extract) (UniProt P41235-5).
T1 sequence: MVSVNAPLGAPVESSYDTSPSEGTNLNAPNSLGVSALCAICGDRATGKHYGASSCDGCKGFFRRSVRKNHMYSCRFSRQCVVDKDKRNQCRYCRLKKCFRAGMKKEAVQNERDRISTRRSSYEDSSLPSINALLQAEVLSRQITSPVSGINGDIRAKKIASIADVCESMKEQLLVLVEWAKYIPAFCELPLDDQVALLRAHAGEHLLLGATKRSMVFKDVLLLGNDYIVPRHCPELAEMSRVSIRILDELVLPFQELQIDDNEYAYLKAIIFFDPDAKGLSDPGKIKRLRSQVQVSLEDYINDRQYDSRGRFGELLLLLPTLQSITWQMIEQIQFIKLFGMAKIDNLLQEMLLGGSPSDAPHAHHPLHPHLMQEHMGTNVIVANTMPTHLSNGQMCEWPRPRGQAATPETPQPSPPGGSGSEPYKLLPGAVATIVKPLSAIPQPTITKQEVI
Briefly: protein-binding microarray. The settings on record: COS-7 nuclear extract on double-stranded Agilent 4x180k PBM; binding buffer, salt, pH and temperature not given; high values mean tight binding; double strand, one strand shown; sequences stand for … in …GCCTAGGGAGATTAGAGTATCGGTCGA
As for ATAAGGCTGCCTCCTATCCTCTGATCCCCA, the binding signal (log2 normalized intensity) came to 2.37.
With TTTACAGGACATAGTCCTCTGCATATTTCT, the binding signal (log2 normalized intensity) was 0.407.
The result for GATCAAGAGGAAGATCTTTTTGATGACTTT reads 0.895; that for CAGAGTCCAGAGGTCACTTTGCTGCCTTTT, 5.34.
As for CAGGGAAGAGCCGGCCGGCGGGGTCACGTG, the binding signal (log2 normalized intensity) came to 3.97.
Turning to AAACCACACACTCCATAACTTTGGGACACT, the binding signal (log2 normalized intensity) was -1.3.
Turning to GGCTCAGGCCGGTTGGCCAGGTTCCTCCAC, the binding signal (log2 normalized intensity) was -1.18.
Consider AAAGATATCTCTGTGGATAGCTCAGGGATT, for which the binding signal (log2 normalized intensity) is -0.846.
For TGGATGGGGGAGGGGACTTCGCTGGAGGTG, the binding signal (log2 normalized intensity) is -1.36.
In the case of GCTCCCAGTGCACACAGACTTTTGTGTGGT, the binding signal (log2 normalized intensity) is 1.62.
With CTGCTTTTATGACCTTTGACTGCAGAAGAT the figure was 6.33; with CCTGCCTACATCAAGAGGATTACATAACCA, -1.13; with TGAGACATGAATCCATCCCACCTCACTTAT, 1.12.
The result for TGGAATGCAAGACCTCAGCCCTCAGGGGCC reads -1.32; that for ACCCACCCACCTATGTCCTTATCCTCATTG, 0.831; that for TATGTTAGACCAGCCAATTCTACTGGAAGT, -0.175.
Consider TCTTCAGGAGGCACTGATAAGCGTATTTCA, for which the binding signal (log2 normalized intensity) was -1.24.
Consider CCTGACCCCCAGTGGAATGTGCCCTTTGAC, for which the binding signal (log2 normalized intensity) was found to be 5.75.
For CATAGATCCCACCATTCCCAGTTGTCTGAT, the binding signal (log2 normalized intensity) turned out to be 1.01.
As for GTCCATGCTATTAAGCACTAGAAAGTCTTG, the binding signal (log2 normalized intensity) is -0.893.
In the case of GGTGGCTCCCCCAGGCGACTGGGCCAGGAG, the binding signal (log2 normalized intensity) stood at 1.18.
For the sequence ACAGCAACTGTAGTGCATAGTGGGTTTCGG, the binding signal (log2 normalized intensity) is 0.0987.
With GAAACATGCGATACTTGACCTGCAATGAAA the figure was 1.02.
Consider TTCCACCTTTGCCCTCCAAACTGAGAGATT, for which the binding signal (log2 normalized intensity) was 3.05.
On to AAATGGAACAGTAAGTGTTAATGGCACTTC, for which the binding signal (log2 normalized intensity) was found to be 0.431.
As to AATGATAAGATATATGACTCTAGATTGTTT, the binding signal (log2 normalized intensity) came out at 0.836.
AGGCTTTAGATAAGGTATGTGGGAGCGGGG: the binding signal (log2 normalized intensity) was -1.23.
For the sequence TGCTTTGGGTGGATTTGGAGATCAGAGTCC, the binding signal (log2 normalized intensity) was found to be 3.7.
CCTATGTCTACGTCTTGTCTCTTTTGTCCA: the binding signal (log2 normalized intensity) turned out to be 1.96.
On to GTTGCACTCACTAGCATTAGGACCTGTTTG, for which the binding signal (log2 normalized intensity) was 0.19.
Take GAGAGCAAGGGGGAAGCTGCTAATTGCTTG: the binding signal (log2 normalized intensity) was -1.33.
With CCCTACTGTACCCTATGCACCCCACAGTGC the figure was 2.43; with GCTGTTACTCTAGTACTAGGCAGCATAGGG, -0.707; with AGCAGCATTGGACCCTCCCAGCCAAACCCC, 4.31.
With TGAGAGCAGAGGCTGGGGCCCTCTTCCAGC the figure was -1.33.
For TCTATCTGTATTCTGAAGCCCTACAGCCCA, the binding signal (log2 normalized intensity) is -0.917.
For the sequence CAGTGTCAGGACCTTGCTCCTGTTCCTTTG, the binding signal (log2 normalized intensity) was 1.79.
Regarding TATTGAACAAAGATTGCTTGCCAGTTCCCT, the binding signal (log2 normalized intensity) was -1.25.
With ACTGGCCCAGCGGATTAATATCCAGAGGCT the figure was -1.35.
Consider CATTGATAATTCAGTTTCATTGCACTTTGC, for which the binding signal (log2 normalized intensity) is 4.62.
CTGGAACCATCAGGATTCCAGAGGAAGCAG: the binding signal (log2 normalized intensity) was -1.01.
On to TTTGTGATTACATTGAGTCCACTGAGATCA, for which the binding signal (log2 normalized intensity) was 1.91.
Turning to ACTTAGGATCAGTAGCATTATCTCCTTGCT, the binding signal (log2 normalized intensity) is -1.27.
With ACACTCAAGGCAAGAGAGTCATAAAGGGCA the figure was 0.0967; with GTGCAATAACACCTATGTGCAAAATACCTG, -1.26; with CCAGTCTAGGTCTGGAAGGAAGGAGGGAGG, -1.26.
Turning to ATATCCTTTAGCTCCTGGGCCCAGATATAC, the binding signal (log2 normalized intensity) is -0.705.
TGCACTTTGCCCTCTCTTCAGCACCTTTTA: the binding signal (log2 normalized intensity) stood at 5.26.
On to TTAGAGCTGGGGCACAATGCTGCAATTCTC, for which the binding signal (log2 normalized intensity) was -1.28.
Take GGTCAATATTTTCTTTGTGCTATTTTTGGC: the binding signal (log2 normalized intensity) turned out to be 1.9.
With GGCCCTCACGTGGCCCTGGCATTTGGCTCA the figure was -1.29.
With TTCCCTCCTCTTCCCTACCCCCTGGGAGTA, the binding signal (log2 normalized intensity) amounted to 4.1.
TTAATGTGCTTGTCTGACTGCTGCCAAAGG: the binding signal (log2 normalized intensity) was -0.967.
With CTGCGCATACCATATGCATTCCTGCCTCAG, the binding signal (log2 normalized intensity) was -0.921.
The result for GGATCCCATTCATGTGGGTCAACAGACAAA reads 0.982; that for ATCTCATCCTGTGACCAAGAATGTCTAACC, -0.428; that for ATAAGAAAGCAAAGTCCAACACAGAAGCCT, 2.56.
In the case of GTAGAGGTGATTTCAGACTATTTTATTTTC, the binding signal (log2 normalized intensity) was -1.02.
As to AGACATCGACCTTTGTGGGCTTCAGACATT, the binding signal (log2 normalized intensity) was determined as 2.32.
Take ATAACACAACCCCTACTGTACCCTATGCAC: the binding signal (log2 normalized intensity) is 2.93.
As for AACTCTTTACACAGTTCTGATACATTGGAC, the binding signal (log2 normalized intensity) stood at 3.58.
CCTATGAGTCTGTAAAGTCAAAAACCAGTT: the binding signal (log2 normalized intensity) is 0.646.
Regarding GTCGCAGAAAACACAGAGATCTGATCAAAG, the binding signal (log2 normalized intensity) is -1.21.
Take TTCAAGGAATGCAGCTCAGACTGCTTCTCT: the binding signal (log2 normalized intensity) is -1.3.
Consider AAGGTCAGGATCTCAGCCGCGCGGCTTCAG, for which the binding signal (log2 normalized intensity) is -1.16.
On to AGATAAACATGAAACAGTCACAGTTATCAG, for which the binding signal (log2 normalized intensity) was -1.01.
On to GAATGTGGGAAGCTGGCACAGCAGATGCTG, for which the binding signal (log2 normalized intensity) was -1.35.
ACTTTGATAGGCACAATCAGCAAACACAGA: the binding signal (log2 normalized intensity) is -1.3.
With GCTGCTGAAACATTCAACTGACACTTGTTT the figure was 0.527; with GCCTTATACAACCTCTGTAATAACTGCAGT, -0.127; with TTAAATAGCTCATTAAGCTTAGCGTTATCA, -1.26.
The result for CCACCCCCTCTCCTCCCTCGGCCGGCCCGG reads 4.98; that for ACACAATATTGACATTCCAGCCTCCAGCTA, -1.31.

These data come from PMC10726135.
